The values below come from ChEMBL document CHEMBL4888484, “Replenishing the malaria drug discovery pipeline: Screening and hit evaluation of the MMV Hit Generation Library 1 (HGL1) against asexual blood stage Plasmodium falciparum ,using a nano luciferase reporter read-out” (2022).

Among all 150,000 compounds or so, about 540 (0.36%) showed an effect of 50% or more. The list shows a part of the results.

In this assay the test system is Plasmodium falciparum. Put plainly: Primary screen in NF54 nanoGlo assay, in single point, at 2uM, 72h; a lower Z score goes with more inhibition. The format is functional, Erythrocyte. The note with it: timepoint 72 hour.
As a reminder, the % Inhibition is the change of the read-out against control, counted positive when it falls. Regarding `C[C@@H]1CN(Cc2cncn2C2CCCCC2)C[C@]1(C)O`, the “% Inhibition” value is on record as -8% and the Z score amounted to 1.27.
The matching figures for `C[C@H](O)c1nc2cc(NC(=O)c3cc(C#N)cn3C)ccc2[nH]1`: 12% and -1.62.
In the same order, the values of `CCC(=O)c1ccc(Cl)c(NC(=O)[C@H]2OCC[C@H]2C)c1` are -6% and 1.11.
In the same order, the values of `COc1ccc(S(=O)(=O)[C@H]2CS(=O)(=O)C[C@@H]2N2CCC3(CC2)OCCO3)cc1` are 12% and -1.54.
As for `CC(C)c1nc([C@H]2CCCN(C(=O)c3ccc(C#N)cn3)C2)no1`, the “% Inhibition” value is listed as -4% and the Z score was found to be 0.74.
Regarding `O=C(Nc1cccc2c1OC(F)(F)O2)N1CCc2nc[nH]c(=O)c2CC1`, the “% Inhibition” value is -5% and the Z score worked out at 0.99.
On to `COc1cccc(CS(=O)(=O)Nc2cc(C(F)(F)F)ccn2)c1`, for which the “% Inhibition” value was -11% and the Z score is 1.4.
The matching figures for `CC(C)CC[C@](C)(O)CNS(=O)(=O)c1cncc(F)c1`: -16% and 2.04.
In the same order, the values of `N#Cc1c(NC(=O)c2cccc3ccccc23)sc2c1CCCC2` [GW620972X] are -21% and 3.59.
Regarding `Cc1ncsc1CN1CCC(Nc2ncnc3c2CCC3)CC1`, the “% Inhibition” value is on record as -12% and the Z score was found to be 2.03.
With `O=C(C[C@@]1(O)C(=O)N(Cc2ccccc2F)c2ccccc21)c1ccc2c(c1)OCO2`, the “% Inhibition” value was found to be 3% and the Z score is -0.4.
In the same order, the values of `CCN(CCNc1nc(C)cc(C)n1)C1CC1` are -11% and 1.08.
In the same order, the values of `CC(C)c1ccc(OCC(=O)N(Cc2ccccc2)[C@H]2CCS(=O)(=O)C2)cc1` are -12% and 1.03.
The matching figures for `O=C(N[C@H](c1ccco1)C(F)(F)F)c1cn(CCN2CCCCC2)nn1`: 12% and -1.57.
As to `O[C@H]1C[C@H]2CC[C@@H](C1)N2c1nc(-c2ccncc2)nc2c1CNC2`, the “% Inhibition” value is given as -5% and the Z score was determined as 0.43.
As to `Nc1nnc(C2(NC(=O)CCN3CCCCC3=O)CCCCC2)s1`, the “% Inhibition” value was found to be 8% and the Z score was -0.66.
As to `COc1ccc(CNC(=O)c2ccc(Oc3ccccc3)cc2)cc1OC`, the “% Inhibition” value is given as -7% and the Z score is recorded as 1.23.
In the same order, the values of `Cc1cc2c(n1-c1cccc3ncccc13)CCCC2=O` are -1% and 0.16.
For `CCc1nc(-c2ccc(-n3cc(C(=O)Nc4cc(C)cc(C)c4)c(C)n3)cc2)no1`, the “% Inhibition” value is 0% and the Z score is given as -0.09.
The matching figures for `O=C([C@@H]1CCCCC(=O)N1Cc1ccccc1)N1CCN(c2ccccn2)CC1`: 2% and -0.3.
`c1ccc(-c2ncn([C@H]3CCOC3)c2-c2c[nH]nc2C2CCCCC2)cc1`: the “% Inhibition” value is -7% and the Z score stood at 0.77.
On to `COc1ccc(NC(=O)Cc2c(C)nc3nc(-c4cccnc4)nn3c2C)cc1`, for which the “% Inhibition” value stood at 21% and the Z score was -2.36.
Turning to `CC(=O)N1CCN(C(=O)c2ccc(C)nc2C2CCN(C(=O)c3ccco3)CC2)CC1`, the “% Inhibition” value was -3% and the Z score stood at 0.32.
The matching figures for `c1ccc(CCN(Cc2cccnc2)Cc2cnc(N3CCCC3)s2)cc1`: 1% and -0.21.
In the same order, the values of `O=C(Nc1nccs1)C1=NN(Cc2ccc(F)cc2)C(=O)CC1` are -13% and 1.14.
Turning to `Cc1ccccc1CC(=O)Nc1ccc2ncnc(N3CCCC3)c2c1`, the “% Inhibition” value is reported as -11% and the Z score came out at 1.73.
The matching figures for `CC(C)N1CC(N2C(=O)[C@H]3CCCN3C2=O)CC1=O` (some centres not stated): 2% and -0.29.
In the case of `COc1ccc(CN(C(=O)NC2CCOCC2)C2CCCC2)cc1OC`, the “% Inhibition” value is listed as -1% and the Z score stood at 0.1.
In the case of `Cc1ccc(Cc2nc(N3CCCN(CCC(C)C)CC3)c3cnn(-c4ccccc4)c3n2)cc1`, the “% Inhibition” value is -5% and the Z score is reported as 0.7.
In the same order, the values of `Cn1c(=O)c(N2CCOCC2)c2c3c(cccc31)C(=O)c1ccccc1-2` are -11% and 1.43.
With `Cc1nc(N(C)CCn2ccnc2C)c2c(C)noc2n1`, the “% Inhibition” value is -4% and the Z score came to 0.74.
Turning to `COc1ccc(Nc2nc(C(C(F)(F)F)(C(F)(F)F)C(F)(F)F)nc(C(C(F)(F)F)(C(F)(F)F)C(F)(F)F)n2)cc1`, the “% Inhibition” value is recorded as 36% and the Z score is -5.2.
In the case of `CC1CCN(C(=O)Cn2c(=O)n(C)c(=O)c3sccc32)CC1`, the “% Inhibition” value came to 22% and the Z score was -2.51.
In the same order, the values of `Cc1nccc(C(=O)Nc2ncccc2O)n1` are -12% and 0.99.
In the case of `Cc1nc([C@@H]2CCCCN2C)n(-c2ccc(Cl)cc2Cl)n1`, the “% Inhibition” value is -13% and the Z score was determined as 1.41.
For the molecule `CCn1ccc(CN(C)Cc2c(C)noc2C)n1`, the “% Inhibition” value was -7% and the Z score came out at 0.92.
In the same order, the values of `COc1ccc([C@@H](O)Cn2cnc(C(=O)Nc3ccc4c(c3)OCO4)n2)cc1` are -17% and 1.98.
With `COCCCNC(=O)c1ccc2c(c1)[C@@H](O)CCCCCN2C`, the “% Inhibition” value is -6% and the Z score is 0.71.
For the molecule `COCC1(O)CN(Cc2ccccc2-c2ccnn2C)C1`, the “% Inhibition” value was -2% and the Z score came to 0.17.
As for `CCC(CNC(=O)N1CCCC(CO)C1)Oc1ccccc1C` (configuration not stated), the “% Inhibition” value was found to be 3% and the Z score is on record as -0.57.
On to `Cc1noc2ncc(C(=O)N[C@@H](C)c3cnn(-c4cccc(C(F)(F)F)c4)c3C)cc12`, for which the “% Inhibition” value was determined as 12% and the Z score was -1.63.
Regarding `CC1CCCN(C(=O)NCC2CCC(C(N)=O)O2)C1C` (configuration not stated), the “% Inhibition” value is -3% and the Z score is reported as 0.32.
The matching figures for `COCC(=O)N1CC[C@@H]2OCc3cccc(c3)Oc3ccc(cc3)CCC(=O)N(CCCO)CC(=O)N[C@H]2C1`: -4% and 0.57.
The matching figures for `COc1ccc([C@@H]2CC(c3ccccc3Cl)=NN2C(=O)CN(CCN2CCOCC2)C(=O)C2CCC2)cc1`: -10% and 1.
In the same order, the values of `O=C(c1ccc(Cl)c(S(=O)(=O)N2CCCCCC2)c1)N1CCn2c1nc1ccccc12` are 3% and -0.44.
On to `Cc1ncsc1CN1CCn2c(nn(C)c2=O)C1`, for which the “% Inhibition” value is reported as -7% and the Z score came out at 1.27.
Take `O=C(Cn1cnc2c(nc3n2CCCCC3)c1=O)N1CCN(Cc2ccccc2)CC1`: the “% Inhibition” value is on record as -9% and the Z score turned out to be 1.4.
In the same order, the values of `CCCC[C@H]1C(=O)N(C)CCN1C(=O)c1ccoc1COc1ccc(C)cc1` are -19% and 2.48.
In the same order, the values of `CCn1ccnc1CN(C)C(=O)NCc1nc(C2CCCCC2)no1` are -4% and 0.42.
In the same order, the values of `Cc1cccnc1[C@@H](NC(=O)c1ccc(C(C)C)[nH]c1=O)C1CC1` are -2% and 0.22.
On to `CC(C)[C@H](NC(=O)c1ccc(Cl)c(C(F)(F)F)c1)C(N)=O`, for which the “% Inhibition” value came to 2% and the Z score was -0.25.
Turning to `CN1CC2(C[C@H]1c1nc(-c3ccccc3)no1)CN(C(=O)c1cccn1C)C2`, the “% Inhibition” value was 9% and the Z score is listed as -1.
In the same order, the values of `Cc1ccc(S(=O)(=O)Nc2ccc(N3CCCCCCC3)c(C(=O)O)c2)c(C)c1` are -5% and 0.48.
The matching figures for `COCc1nc([C@H]2CCOC2)cc(N2CCn3nc(C)cc3C2)n1`: -9% and 1.69.
In the same order, the values of `CC(=O)Nc1ccc2nc(N3CCC(C(=O)N4CCC(N5CCCCC5)CC4)CC3)cc(C)c2c1` are 10% and -1.6.
Turning to `Cc1nc(CC(=O)N2CC[C@@H]3OCc4cccc(c4)Oc4ccc(cc4)CCC(=O)N(CCCO)CC(=O)N[C@H]3C2)cs1`, the “% Inhibition” value is -4% and the Z score is given as 0.69.
In the same order, the values of `COc1ccc(-n2cccn2)c(CN2CCC3(CC2)C(=O)N(C)C(=O)N3C)c1` are -14% and 2.73.
In the same order, the values of `CCN1CCN(C(C)(C)CNc2cccc(C(N)=O)n2)CC1` are 6% and -0.92.
The matching figures for `CCOc1ccc(-c2nc([C@H]3CCOC3)no2)o1`: 10% and -1.27.
As to `Cc1ccc(-c2cncnc2)c2cccnc12`, the “% Inhibition” value is given as -2% and the Z score is 0.31.
In the same order, the values of `CC(C)CCC(=O)Nc1cc(C(F)(F)F)ccc1C1CCN(C(=O)CCC(C)C)CC1` are -10% and 1.13.
On to `CCN(CC)c1ccc(NS(=O)(=O)c2cc(-c3nc(C)c(C)s3)sc2C)c(C)c1`, for which the “% Inhibition” value is 1% and the Z score is recorded as -0.12.
In the same order, the values of `C=CCN(CC=C)S(=O)(=O)c1ccc(S(=O)(=O)Nc2ncnn2C)cc1` are -3% and 0.49.
Take `CCN1C[C@@H](c2ccccc2)CC2(CCN(c3ncccc3C(N)=O)CC2)C1`: the “% Inhibition” value is listed as -8% and the Z score amounted to 1.76.
For `Cc1ccc(C(=O)N(C)CC(=O)NC(C)C)c(C)c1`, the “% Inhibition” value is -6% and the Z score is on record as 0.59.
Turning to `COc1ccc(C(=O)C[n+]2nc(CNc3ccc(Br)cc3)n3c2CCCCC3)cc1`, the “% Inhibition” value turned out to be 78% and the Z score is recorded as -12.51.
In the same order, the values of `COCc1csc(NC(=O)N2Cc3ccccc3OC[C@@H]2C)n1` are -17% and 2.13.
As to `Cc1nc(C)c(C(=O)c2oc3ccccc3c2N)o1`, the “% Inhibition” value is listed as -30% and the Z score is 3.52.
On to `Cc1cccc(OCC(=O)N2[C@@H]3CC[C@H]2CC(NC(=O)c2ccc(F)cc2)C3)c1` (some centres not stated), for which the “% Inhibition” value is reported as 5% and the Z score is listed as -0.76.
Take `CCCc1cc(C(=O)NCCc2nc(C)c3c(n2)CCC3)[nH]n1`: the “% Inhibition” value was -19% and the Z score is 3.34.
Consider `Cc1nsc(N2CCC([C@H](O)C(=O)NC3CC3)CC2)c1C#N`, for which the “% Inhibition” value is listed as 14% and the Z score was -1.82.
The matching figures for `CCCc1cc(C(=O)N[C@H](C(=O)O)C(C)(C)C)[nH]n1`: -17% and 1.96.
As to `O=c1ccc(-c2ccc3ccccc3c2)c2n1C[C@H]1C[C@@H]2CN(S(=O)(=O)c2ccccc2)C1`, the “% Inhibition” value is -13% and the Z score amounted to 2.35.
With `Cc1ccc(-c2nc(-c3ccc4c(c3)ncn4CCC(=O)N3CCCC3)no2)cc1F`, the “% Inhibition” value is -24% and the Z score came out at 3.13.
With `CCc1nsc(NCC2(Br)CC2)n1`, the “% Inhibition” value stood at 1% and the Z score is reported as -0.17.
The matching figures for `Cc1ccc(Oc2ccc(C#N)cn2)cn1`: -15% and 1.83.
`COCC(=O)N(CC(=O)N1CCc2sccc2C1COc1ccccc1F)CC1CCCO1` (configuration not stated): the “% Inhibition” value is recorded as 0% and the Z score is 0.04.
The matching figures for `O=S(=O)(Nc1ccc(Cl)c2cccnc12)c1c(F)cc(F)cc1Br`: -8% and 1.3.
On to `O=C(Nc1c(C(=O)Nc2ccc3c(c2)OCO3)oc2ccccc12)c1ccc2ccccc2c1`, for which the “% Inhibition” value was -4% and the Z score is 0.81.
In the case of `O=C1CN(C(=O)NCc2c(F)cccc2Cl)CCCN1`, the “% Inhibition” value was -6% and the Z score came to 1.11.
For the molecule `CCOC(=O)CN(Cc1cccn1Cc1cccc(C)c1)C1CCCCC1`, the “% Inhibition” value amounted to 3% and the Z score is -0.32.
